# Laboratory results reported in PubChem BioAssay AID2202238 (Ras Initiative Chemistry Research Team, Frederick National …, 2025).
# The other results are listed elsewhere or left out. The main result of the screen is listed elsewhere. These columns were measured beside it and carry no call.
# Target: GTPase KRas (Homo sapiens) (UniProt P01116)
# Assay: Cysteine mutants labelled by reactive fragments (mass read-out) (AID 2202238)
# Set-up: protein at 5 µM with 500 µM competing thiol for 1.5 h
# Settings: KRAS G12D cysteine mutants, disulfide tethering, MALDI-TOF labeling, stronger effect = higher value, fragment at 500 µM
# [1] = measured here: G60C mutant labeling
# [2] = measured here: G75C mutant labeling
# [3] = measured here: H94C mutant labeling
# [4] = measured here: I36C mutant labeling
# [5] = measured here: L120C mutant labeling
# [6] = measured here: M67C mutant labeling
# [7] = measured here: M72C mutant labeling
# [8] = measured here: N26C mutant labeling
# [9] = measured here: N86C mutant labeling
# [10] = measured here: P121C mutant labeling
# [11] = measured here: S122C mutant labeling
# [12] = measured here: S136C mutant labeling
# UniProt P01116, sequence (P01116 whole entry, looked up, the tested form may be a part): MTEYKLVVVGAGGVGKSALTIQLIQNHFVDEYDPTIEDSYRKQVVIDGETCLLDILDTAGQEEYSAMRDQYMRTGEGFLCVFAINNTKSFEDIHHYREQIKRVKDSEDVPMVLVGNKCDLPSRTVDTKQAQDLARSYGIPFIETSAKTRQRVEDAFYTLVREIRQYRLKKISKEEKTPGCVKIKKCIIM
Structure (SMILES),percent labeling [1],percent labeling [2],percent labeling [3],percent labeling [4],percent labeling [5],percent labeling [6],percent labeling [7],percent labeling [8],percent labeling [9],percent labeling [10],percent labeling [11],percent labeling [12]
CC(C)c1cccc(-c2ccc(C(=O)NCCS)o2)c1,33.5%,22.1%,15.5%,8.8%,18.5%,9.5%,38.1%,20.6%,10.5%,19.4%,10.9%,16.7%
CCOc1ccccc1-c1cccc(C(=O)NCCS)c1,21.5%,11.5%,12.6%,8.9%,16.7%,11.4%,31.5%,28.5%,10%,13.2%,7.8%,18.4%
Cc1cc(CCCC(=O)NCCS)c(C)s1,35.2%,15.5%,20%,10.4%,22.7%,14.1%,27.5%,26.4%,8.1%,16.7%,13.7%,28.8%
O=C(CCS)NC1CCC(N2CCCC2=O)CC1 (configuration not stated),,7.9%,33.7%,34.9%,29.7%,34.4%,20.6%,,25.1%,34.1%,36.7%,51.6%
O=C(NCCS)C1(N2CCOCC2)CCCC1,35.2%,14.9%,32.5%,23.3%,24.3%,32.1%,13.6%,33.1%,28%,30.6%,31.2%,38.2%
CC(=NOCC(=O)NCCS)c1ccc2c(c1)OCO2,36.6%,15.2%,23.5%,16.1%,24.5%,20.3%,28.3%,32.6%,14.9%,17.3%,16.4%,23.7%
O=C(NCCS)C1CCCCC1c1nc2ccccc2s1 (configuration not stated),51.7%,16.2%,25.9%,24.3%,24.1%,26.8%,22.1%,30.9%,13%,21.1%,16%,31.6%
O=C(NCCS)c1ccc(-c2nc3ccccc3s2)o1,23%,11.9%,15.9%,9.4%,15.9%,10.4%,30.3%,26.2%,11.1%,12.2%,7.3%,14.4%
O=C(NCCS)c1c(Br)ccc(F)c1OC(F)(F)F,34.9%,18%,21%,12.7%,18.6%,14.5%,23.3%,22%,10.1%,15.6%,12.2%,20.8%
Cc1cc(C(=O)NCCS)n(-c2ccccc2)n1,38.2%,5.9%,37.5%,19.8%,31.6%,9.2%,34.4%,37.2%,14.9%,25.7%,15.3%,33.2%
O=C(CC(n1cccn1)C(F)(F)F)NCCS (configuration not stated),39.3%,10.2%,29.4%,26.8%,38.7%,26.7%,13.5%,29.8%,25.8%,31.7%,29.3%,35.9%
O=C(CCS)N1CCC(c2ccc3cccnc3n2)CC1,,13.2%,31.8%,40.4%,37.6%,44.3%,30.9%,,27.9%,31.2%,23.4%,50%
CC(C)Cn1[nH]c(CC(=O)NCCS)cc1=O,11.4%,0%,15.9%,11.1%,35.5%,15.8%,0%,20.5%,7.4%,25.4%,11.5%,18.6%
